# Results taken from the supplement of paper PMC8728848.
# The list shows a part of the results.
# B1: LSL-150 (Laetiporus sulphureus), Q7Z8V1 (protein)
# chain: MTDIYIPPEGLYFRLLGFASRQVIFARNSPSPDVGLSPVNDQATDQYFSLIYGTGEHAGLYAIKSKATGKVLFSRRPAEPYVGQIDGDGRYPDNWFKIEPGKTYLSKYFRLVQPSTGTALVSRTHLQPYFWNHPQTEVFDDQYFTFLFEDHHHHHH
# Tests used:
# Test in all cases: glycan array binding signal (z-score within array); higher = stronger binding
# Settings in all cases: glycan notation: IUPAC condensed, linker removed
# [1] = target: GlcNAc(b1-3)Gal(b1-3)GalNAc
# In short: (§1)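 The binding signal is a Z-score computed within each array. Data were drawn from 3228 arrays in the Consortium for Functional Glycomics database, restricted to those with a known protein sequence. Scores were averaged over arrays of the same protein sequence at different concentrations or buffers, and over linkers, and negative values can be taken as non-binding.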
# GlcNAc(b1-3)Gal(b1-4)Glc = target: GlcNAc(b1-3)Gal(b1-4)Glc
# In short: as §1
# [2] = target: GlcNAc(b1-3)Gal(b1-4)GlcNAc
# In short: as §1
# [3] = target: GlcNAc(b1-3)Gal(b1-4)GlcNAc(b1-2)Man(a1-3)[GlcNAc(b1-3)Gal(b1-4)GlcNAc(b1-2)Man(a1-6)]Man(b1-4)GlcNAc(b1-4)GlcNAc
# In short: as §1
# [4] = target: GlcNAc(b1-3)Gal(b1-4)GlcNAc(b1-2)Man(a1-3)[GlcNAc(b1-3)Gal(b1-4)GlcNAc(b1-2)Man(a1-6)]Man(b1-4)GlcNAc(b1-4)[Fuc(a1-6)]GlcNAc
# In short: as §1
# [5] = target: GlcNAc(b1-3)Gal(b1-4)GlcNAc(b1-2)[GlcNAc(b1-3)Gal(b1-4)GlcNAc(b1-6)]Man(a1-6)[GlcNAc(b1-3)Gal(b1-4)GlcNAc(b1-2)Man(a1-3)]Man(b1-4)GlcNAc(b1-4)GlcNAc
# In short: as §1
# [6] = target: GlcNAc(b1-3)Gal(b1-4)GlcNAc(b1-3)Gal(b1-4)GlcNAc
# In short: as §1
# [7] = target: GlcNAc(b1-3)Gal(b1-4)GlcNAc(b1-3)Gal(b1-4)GlcNAc(b1-2)Man(a1-3)[GlcNAc(b1-3)Gal(b1-4)GlcNAc(b1-3)Gal(b1-4)GlcNAc(b1-2)Man(a1-6)]Man(b1-4)GlcNAc(b1-4)GlcNAc
# In short: as §1
# [8] = target: GlcNAc(b1-3)Gal(b1-4)GlcNAc(b1-3)Gal(b1-4)GlcNAc(b1-2)Man(a1-3)[GlcNAc(b1-3)Gal(b1-4)GlcNAc(b1-3)Gal(b1-4)GlcNAc(b1-2)Man(a1-6)]Man(b1-4)GlcNAc(b1-4)[Fuc(a1-6)]GlcNAc
# In short: as §1
# [9] = target: GlcNAc(b1-3)Gal(b1-4)GlcNAc(b1-3)Gal(b1-4)GlcNAc(b1-2)[GlcNAc(b1-3)Gal(b1-4)GlcNAc(b1-3)Gal(b1-4)GlcNAc(b1-6)]Man(a1-6)[GlcNAc(b1-3)Gal(b1-4)GlcNAc(b1-3)Gal(b1-4)GlcNAc(b1-2)Man(a1-3)]Man(b1-4)GlcNAc(b1-4)[Fuc(a1-6)]GlcNAc
# In short: as §1
# [10] = target: GlcNAc(b1-3)Gal(b1-4)GlcNAc(b1-3)Gal(b1-4)GlcNAc(b1-3)Gal(b1-4)GlcNAc(b1-2)Man(a1-3)[GlcNAc(b1-3)Gal(b1-4)GlcNAc(b1-3)Gal(b1-4)GlcNAc(b1-3)Gal(b1-4)GlcNAc(b1-2)Man(a1-6)]Man(b1-4)GlcNAc(b1-4)GlcNAc
# In short: as §1
# [11] = target: GlcNAc(b1-3)Gal(b1-4)GlcNAc(b1-3)Gal(b1-4)GlcNAc(b1-3)Gal(b1-4)GlcNAc(b1-2)Man(a1-3)[GlcNAc(b1-3)Gal(b1-4)GlcNAc(b1-3)Gal(b1-4)GlcNAc(b1-3)Gal(b1-4)GlcNAc(b1-2)Man(a1-6)]Man(b1-4)GlcNAc(b1-4)[Fuc(a1-6)]GlcNAc
# In short: as §1
# [12] = target: GlcNAc(b1-3)Gal(b1-4)GlcNAc(b1-3)Gal(b1-4)GlcNAc(b1-3)Gal(b1-4)GlcNAc(b1-2)[GlcNAc(b1-3)Gal(b1-4)GlcNAc(b1-3)Gal(b1-4)GlcNAc(b1-3)Gal(b1-4)GlcNAc(b1-6)]Man(a1-6)[GlcNAc(b1-3)Gal(b1-4)GlcNAc(b1-3)Gal(b1-4)GlcNAc(b1-3)Gal(b1-4)GlcNAc(b1-2)Man(a1-3)]Man(b1-4)GlcNAc(b1-4)[Fuc(a1-6)]GlcNAc
# In short: as §1
# [13] = target: GlcNAc(b1-3)Gal(b1-4)GlcNAc(b1-3)Gal(b1-4)GlcNAc(b1-3)Gal(b1-4)GlcNAc(b1-3)Gal(b1-4)GlcNAc(b1-2)Man(a1-3)[GlcNAc(b1-3)Gal(b1-4)GlcNAc(b1-3)Gal(b1-4)GlcNAc(b1-3)Gal(b1-4)GlcNAc(b1-3)Gal(b1-4)GlcNAc(b1-2)Man(a1-6)]Man(b1-4)GlcNAc(b1-4)GlcNAc
# In short: as §1
# [14] = target: GlcNAc(b1-3)Gal(b1-4)GlcNAc(b1-3)Gal(b1-4)GlcNAc(b1-3)Gal(b1-4)GlcNAc(b1-3)Gal(b1-4)GlcNAc(b1-2)Man(a1-3)[GlcNAc(b1-3)Gal(b1-4)GlcNAc(b1-3)Gal(b1-4)GlcNAc(b1-3)Gal(b1-4)GlcNAc(b1-3)Gal(b1-4)GlcNAc(b1-2)Man(a1-6)]Man(b1-4)GlcNAc(b1-4)[Fuc(a1-6)]GlcNAc
# In short: as §1
# [15] = target: GlcNAc(b1-3)Gal(b1-4)GlcNAc(b1-3)Gal(b1-4)GlcNAc(b1-3)Gal(b1-4)GlcNAc(b1-3)Gal(b1-4)GlcNAc(b1-2)[GlcNAc(b1-3)Gal(b1-4)GlcNAc(b1-3)Gal(b1-4)GlcNAc(b1-3)Gal(b1-4)GlcNAc(b1-3)Gal(b1-4)GlcNAc(b1-6)]Man(a1-6)[GlcNAc(b1-3)Gal(b1-4)GlcNAc(b1-3)Gal(b1-4)GlcNAc(b1-3)Gal(b1-4)GlcNAc(b1-3)Gal(b1-4)GlcNAc(b1-2)Man(a1-3)]Man(b1-4)GlcNAc(b1-4)[Fuc(a1-6)]GlcNAc
# In short: as §1
# [16] = target: GlcNAc(b1-3)Gal(b1-4)GlcNAc(b1-3)Gal(b1-4)GlcNAc(b1-3)GalNAc
# In short: as §1
# [17] = target: GlcNAc(b1-3)Gal(b1-4)GlcNAc(b1-3)GalNAc
# In short: as §1
# [18] = target: GlcNAc(b1-3)Gal(b1-4)GlcNAc(b1-3)[GlcNAc(b1-3)Gal(b1-4)GlcNAc(b1-3)]GalNAc
# In short: as §1
# [19] = target: GlcNAc(b1-3)Gal(b1-4)GlcNAc(b1-6)[Gal(b1-3)]GalNAc
# In short: as §1
# [20] = target: GlcNAc(b1-3)Gal(b1-4)GlcNAc(b1-6)[GlcNAc(b1-3)Gal(b1-3)]GalNAc
# In short: as §1
# [21] = target: GlcNAc(b1-3)Gal(b1-4)GlcNAc(b1-6)[GlcNAc(b1-3)]Gal(b1-4)GlcNAc
# In short: as §1
# GlcNAc(b1-3)GalNAc = target: GlcNAc(b1-3)GalNAc
# In short: as §1
# GlcNAc(b1-3)Man = target: GlcNAc(b1-3)Man
# In short: as §1
# [22] = target: GlcNAc(b1-3)[GlcNAc(b1-4)][GlcNAc(b1-6)]GlcNAc
# In short: as §1
# [23] = target: GlcNAc(b1-3)[GlcNAc(b1-6)]Gal(b1-4)GlcNAc
# In short: as §1
# [24] = target: GlcNAc(b1-3)[GlcNAc(b1-6)]GalNAc
# In short: as §1
# [25] = target: GlcNAc(b1-4)Gal(b1-4)GlcNAc
# In short: as §1
# GlcNAc(b1-4)GlcNAc = target: GlcNAc(b1-4)GlcNAc
# In short: as §1
# [26] = target: GlcNAc(b1-4)GlcNAc(b1-4)GlcNAc
# In short: as §1
# [27] = target: GlcNAc(b1-4)GlcNAc(b1-4)GlcNAc(b1-4)GlcNAc(b1-4)GlcNAc
# In short: as §1
# [28] = target: GlcNAc(b1-4)GlcNAc(b1-4)GlcNAc(b1-4)GlcNAc(b1-4)GlcNAc(b1-4)GlcNAc
# In short: as §1
# [29] = target: GlcNAc(b1-4)[GlcNAc(b1-6)]GalNAc
# In short: as §1
# [30] = target: GlcNAc(b1-6)Gal(b1-4)GlcNAc
# In short: as §1
# GlcNAc(b1-6)GalNAc = target: GlcNAc(b1-6)GalNAc
# In short: as §1
# [31] = target: GlcNAc6S(b1-3)Gal(b1-4)GlcNAc
# In short: as §1
# Kdn(a2-3)Gal(b1-3)GalNAc = target: Kdn(a2-3)Gal(b1-3)GalNAc
# In short: as §1
# Kdn(a2-3)Gal(b1-3)GlcNAc = target: Kdn(a2-3)Gal(b1-3)GlcNAc
# In short: as §1
# Kdn(a2-3)Gal(b1-4)Glc = target: Kdn(a2-3)Gal(b1-4)Glc
# In short: as §1
# Kdn(a2-3)Gal(b1-4)GlcNAc = target: Kdn(a2-3)Gal(b1-4)GlcNAc
# In short: as §1
# [32] = target: Kdn(a2-3)Gal(b1-4)[Fuc(a1-3)]GlcNAc
# In short: as §1
# Kdn(a2-6)Gal(b1-4)GlcNAc = target: Kdn(a2-6)Gal(b1-4)GlcNAc
# In short: as §1
# [33] = target: Man(a1-2)Man(a1-2)Man(a1-3)Man
# In short: as §1
# [34] = target: Man(a1-2)Man(a1-2)Man(a1-6)[Man(a1-3)]Man
# In short: as §1
# Man(a1-2)Man(a1-3)Man = target: Man(a1-2)Man(a1-3)Man
# In short: as §1
binder,measurement,setting,value
B1,glycan array binding signal (z-score),[1],-0.199
same,glycan array binding signal (z-score),GlcNAc(b1-3)Gal(b1-4)Glc,-0.19
same,glycan array binding signal (z-score),[2],-0.179
same,glycan array binding signal (z-score),[3],0.096
same,glycan array binding signal (z-score),[4],0.158
same,glycan array binding signal (z-score),[5],-0.047
same,glycan array binding signal (z-score),[6],0.299
same,glycan array binding signal (z-score),[7],0.937
same,glycan array binding signal (z-score),[8],1.84
same,glycan array binding signal (z-score),[9],1.08
same,glycan array binding signal (z-score),[10],4.23
same,glycan array binding signal (z-score),[11],3.62
same,glycan array binding signal (z-score),[12],3.94
same,glycan array binding signal (z-score),[13],5.26
same,glycan array binding signal (z-score),[14],4.72
same,glycan array binding signal (z-score),[15],7.09
same,glycan array binding signal (z-score),[16],-0.039
same,glycan array binding signal (z-score),[17],-0.179
same,glycan array binding signal (z-score),[18],-0.181
same,glycan array binding signal (z-score),[19],-0.191
same,glycan array binding signal (z-score),[20],-0.193
same,glycan array binding signal (z-score),[21],-0.187
same,glycan array binding signal (z-score),GlcNAc(b1-3)GalNAc,-0.21
same,glycan array binding signal (z-score),GlcNAc(b1-3)Man,-0.214
same,glycan array binding signal (z-score),[22],-0.188
same,glycan array binding signal (z-score),[23],-0.206
same,glycan array binding signal (z-score),[24],-0.208
same,glycan array binding signal (z-score),[25],-0.205
same,glycan array binding signal (z-score),GlcNAc(b1-4)GlcNAc,-0.212
same,glycan array binding signal (z-score),[26],-0.206
same,glycan array binding signal (z-score),[27],-0.203
same,glycan array binding signal (z-score),[28],-0.199
same,glycan array binding signal (z-score),[29],-0.204
same,glycan array binding signal (z-score),[30],-0.202
same,glycan array binding signal (z-score),GlcNAc(b1-6)GalNAc,-0.197
same,glycan array binding signal (z-score),[31],-0.202
same,glycan array binding signal (z-score),Kdn(a2-3)Gal(b1-3)GalNAc,-0.201
same,glycan array binding signal (z-score),Kdn(a2-3)Gal(b1-3)GlcNAc,-0.202
same,glycan array binding signal (z-score),Kdn(a2-3)Gal(b1-4)Glc,-0.206
same,glycan array binding signal (z-score),Kdn(a2-3)Gal(b1-4)GlcNAc,-0.198
same,glycan array binding signal (z-score),[32],-0.202
same,glycan array binding signal (z-score),Kdn(a2-6)Gal(b1-4)GlcNAc,-0.206
same,glycan array binding signal (z-score),[33],-0.205
same,glycan array binding signal (z-score),[34],-0.207
same,glycan array binding signal (z-score),Man(a1-2)Man(a1-3)Man,-0.213
